Reference: a collection of fitness landscapes (doi:10.1016/j.celrep.2020.107928)
In all, about 81,000 sequences were measured (“one-hybrid fitness for binding parS DNA”: median about -0.17, highest 2% from about 0.51 on). This is one part of the list.

B1: Caulobacter ParB omega fusion; a variant is named by its letters at X, in order, B8GW30 (parent)
chain: MESVVVGEPGMSEGRRGLGRGLSALLGEVDAAPAQAPGEQLGGSREAPIEILQRNPDQPRRTFREEDLEDLSNSIREKGVLQPILVRPSPDTAGEYQIVAGERAWRAAQRAGLKTVPIMVRELDDLAVLEIGIIENVQRADLNVLEEALSYKVLMEKFERTQENIAQTIGKSXSHVANXMRLLXLPDEVQSYLVSGELTAXHARAIAAAADPVALAKQIIEGGLSVRETEALARKAPNLSAGKSKGGRPPRVKDTDTQALESDLSSVLGLDVSIDHRGSTGTLTITYATLEQLDDLCNRLTRGI

Variants of: B1
Test: one-hybrid fitness for binding parS DNA (scaled: cognate 1, non-cognate 0); higher = stronger binding
Conditions: with parS DNA site
Summary of the method: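 Pre- and post-selection plasmids were Illumina-sequenced, three replicate libraries were pooled, and any variant with under 10 reads was removed. The libraries were Caulobacter ParB with four specificity codons randomised, selected in E. coli USO through a HIS3 reporter whose site is 19 bp from the promoter. Cells grew 48 hours at 37°C on M9 without histidine, with 0.1 mM IPTG and 5 mM 3-AT. Fitness is the log change in variant-to-wild-type read ratio, rescaled against cognate and non-cognate.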

Variant	one-hybrid fitness for binding parS DNA
RKQN	0.3
IRTT	≤ 0.2
QMRR	≤ 0.2
CKKT	≤ 0.2
AKPF	≤ 0.2
RYVW	0.209
ADNS	≤ 0.2
DPYT	≤ 0.2
KQPR	≤ 0.2
IISL	≤ 0.2
SGRA	≤ 0.2
IDEP	≤ 0.2
LFVD	≤ 0.2
MGRC	≤ 0.2
HGTG	≤ 0.2
PIAW	≤ 0.2
WVEC	0.307
CWLC	≤ 0.2
QESK	≤ 0.2
WVIY	≤ 0.2
NYCL	≤ 0.2

Variant	one-hybrid fitness for binding parS DNA
LSNL	≤ 0.2
QSHV	≤ 0.2
KLET	≤ 0.2
TTTD	≤ 0.2
ELVS	≤ 0.2
VMTS	≤ 0.2
GHKC	≤ 0.2
QHPV	≤ 0.2
TLQV	≤ 0.2
DRWR	≤ 0.2
FILC	≤ 0.2
QEAA	≤ 0.2
TYES	≤ 0.2
MSKC	≤ 0.2
AMWS	≤ 0.2
WTTG	≤ 0.2
RRIK	≤ 0.2
DARG	≤ 0.2
AMLS	≤ 0.2
QNYT	≤ 0.2
HAVA	≤ 0.2

Variant	one-hybrid fitness for binding parS DNA
ELAT	≤ 0.2
IARC	≤ 0.2
QEIC	≤ 0.2
AGGD	≤ 0.2
FTKI	≤ 0.2
PKPC	≤ 0.2
QGQY	≤ 0.2
SWTV	≤ 0.2
TRER	≤ 0.2
TRDW	≤ 0.2
TGVT	≤ 0.2
ADWR	≤ 0.2
DIAR	≤ 0.2
QTYP	≤ 0.2
RHSA	0.515
DQDG	≤ 0.2
IVDK	≤ 0.2
AYEV	≤ 0.2
EYSD	≤ 0.2
RQIT	0.647
LYGS	≤ 0.2

Variant	one-hybrid fitness for binding parS DNA
NQKT	≤ 0.2
YQER	≤ 0.2
TIAK	≤ 0.2
YMAG	≤ 0.2
NVSC	≤ 0.2
VVHC	≤ 0.2
CNYE	≤ 0.2
NPSS	≤ 0.2
TDYS	≤ 0.2
VRSP	≤ 0.2
YCTT	≤ 0.2
RSQG	0.995
QYTS	≤ 0.2
RTPK	≤ 0.2
CTPS	≤ 0.2
QSWK	≤ 0.2
RMET	0.731
ACKC	≤ 0.2
SMEL	≤ 0.2
HMSY	≤ 0.2
IPLK	≤ 0.2
